{"source": "the supplement of paper PMC8728848", "binders": {"B1": {"name": "MSMEG3662-2a (Mycobacterium smegmatis), A0QYH7_MYCS2 (protein)", "chain": "MGDTLTAGQKLERGGSLQSGNGAYTLTLQDDGNLVLYARDKAVWSTGTNGQDVVRAEVQTDGNFVLYTAEKPVWHTDTKGKKEVKLVLQDDRNLVLYAKDGPAWSSKTDTTEPPPPAPEPEKEAEVAPAAAEEAAPAPVAEPAPAEPAPAAPPPAPPAPRTYTVVSGDTLWAIAERFYGDGSKYQQIADASGIANPDLIHPGQVLTIP"}}, "experiment_in_all_cases": "glycan array binding signal (z-score within array); higher = stronger binding", "settings_in_all_cases": "glycan notation: IUPAC condensed, linker removed", "key": {"[1]": {"target": "Fuc(a1-2)Gal6S(b1-3)GlcNAc", "procedure,_shortened": "(§1)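 The binding signal is a Z-score computed within each array and averaged over linkers. Arrays of the same protein sequence at different concentrations or buffers were also averaged together. Data originate from 3228 arrays in the Consortium for Functional Glycomics database, kept only where the protein sequence was available.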"}, "[2]": {"target": "Fuc(a1-2)Gal6S(b1-3)GlcNAc6S", "procedure,_shortened": "as §1"}, "Fuc(a1-2)Gal6S(b1-4)Glc": {"target": "Fuc(a1-2)Gal6S(b1-4)Glc", "procedure,_shortened": "as §1"}, "[3]": {"target": "Fuc(a1-2)Gal6S(b1-4)Glc6S", "procedure,_shortened": "as §1"}, "Fuc(a1-2)[Gal(a1-3)]Gal": {"target": "Fuc(a1-2)[Gal(a1-3)]Gal", "procedure,_shortened": "as §1"}, "[4]": {"target": "Fuc(a1-2)[Gal(a1-3)]Gal(b1-3)GalNAc", "procedure,_shortened": "as §1"}, "[5]": {"target": "Fuc(a1-2)[Gal(a1-3)]Gal(b1-3)GalNAc(b1-3)Gal(a1-4)Gal(b1-4)Glc", "procedure,_shortened": "as §1"}, "[6]": {"target": "Fuc(a1-2)[Gal(a1-3)]Gal(b1-3)GlcNAc", "procedure,_shortened": "as §1"}, "[7]": {"target": "Fuc(a1-2)[Gal(a1-3)]Gal(b1-3)GlcNAc(b1-2)Man(a1-3)[Fuc(a1-2)[Gal(a1-3)]Gal(b1-3)GlcNAc(b1-2)Man(a1-6)]Man(b1-4)GlcNAc(b1-4)GlcNAc", "procedure,_shortened": "as §1"}, "[8]": {"target": "Fuc(a1-2)[Gal(a1-3)]Gal(b1-3)GlcNAc(b1-2)Man(a1-3)[Fuc(a1-2)[Gal(a1-3)]Gal(b1-3)GlcNAc(b1-2)Man(a1-6)]Man(b1-4)GlcNAc(b1-4)[Fuc(a1-6)]GlcNAc", "procedure,_shortened": "as §1"}, "[9]": {"target": "Fuc(a1-2)[Gal(a1-3)]Gal(b1-3)GlcNAc(b1-3)GalNAc", "procedure,_shortened": "as §1"}, "[10]": {"target": "Fuc(a1-2)[Gal(a1-3)]Gal(b1-3)GlcNAc(b1-6)GalNAc", "procedure,_shortened": "as §1"}, "[11]": {"target": "Fuc(a1-2)[Gal(a1-3)]Gal(b1-4)Glc", "procedure,_shortened": "as §1"}, "[12]": {"target": "Fuc(a1-2)[Gal(a1-3)]Gal(b1-4)GlcNAc", "procedure,_shortened": "as §1"}, "[13]": {"target": "Fuc(a1-2)[Gal(a1-3)]Gal(b1-4)GlcNAc(b1-2)Man", "procedure,_shortened": "as §1"}, "[14]": {"target": "Fuc(a1-2)[Gal(a1-3)]Gal(b1-4)GlcNAc(b1-2)Man(a1-3)[Fuc(a1-2)[Gal(a1-3)]Gal(b1-4)GlcNAc(b1-2)Man(a1-6)]Man(b1-4)GlcNAc(b1-4)GlcNAc", "procedure,_shortened": "as §1"}, "[15]": {"target": "Fuc(a1-2)[Gal(a1-3)]Gal(b1-4)GlcNAc(b1-2)Man(a1-3)[Fuc(a1-2)[Gal(a1-3)]Gal(b1-4)GlcNAc(b1-2)Man(a1-6)]Man(b1-4)GlcNAc(b1-4)[Fuc(a1-6)]GlcNAc", "procedure,_shortened": "as §1"}, "[16]": {"target": "Fuc(a1-2)[Gal(a1-3)]Gal(b1-4)GlcNAc(b1-3)GalNAc", "procedure,_shortened": "as §1"}, "[17]": {"target": "Fuc(a1-2)[Gal(a1-3)]Gal(b1-4)GlcNAc(b1-3)[Fuc(a1-2)[Gal(a1-3)]Gal(b1-4)GlcNAc(b1-6)]GalNAc", "procedure,_shortened": "as §1"}, "[18]": {"target": "Fuc(a1-2)[Gal(a1-3)]Gal(b1-4)GlcNAc(b1-6)GalNAc", "procedure,_shortened": "as §1"}, "[19]": {"target": "Fuc(a1-2)[Gal(a1-3)]Gal(b1-4)[Fuc(a1-3)]Glc", "procedure,_shortened": "as §1"}, "[20]": {"target": "Fuc(a1-2)[Gal(a1-3)]Gal(b1-4)[Fuc(a1-3)]GlcNAc", "procedure,_shortened": "as §1"}, "[21]": {"target": "Fuc(a1-2)[Gal(a1-3)]Gal(b1-4)[Fuc(a1-3)]GlcNAc(b1-3)GalNAc", "procedure,_shortened": "as §1"}, "[22]": {"target": "Fuc(a1-2)[Gal(a1-4)]Gal(b1-4)GlcNAc", "procedure,_shortened": "as §1"}, "[23]": {"target": "Fuc(a1-2)[GalNAc(a1-3)]Gal", "procedure,_shortened": "as §1"}, "[24]": {"target": "Fuc(a1-2)[GalNAc(a1-3)]Gal(b1-3)GalNAc(a1-3)[Fuc(a1-2)]Gal(b1-4)GlcNAc", "procedure,_shortened": "as §1"}, "[25]": {"target": "Fuc(a1-2)[GalNAc(a1-3)]Gal(b1-3)GalNAc(b1-3)Gal(a1-4)Gal(b1-4)Glc", "procedure,_shortened": "as §1"}, "[26]": {"target": "Fuc(a1-2)[GalNAc(a1-3)]Gal(b1-3)GlcNAc", "procedure,_shortened": "as §1"}, "[27]": {"target": "Fuc(a1-2)[GalNAc(a1-3)]Gal(b1-3)GlcNAc(b1-2)Man(a1-3)[Fuc(a1-2)[GalNAc(a1-3)]Gal(b1-3)GlcNAc(b1-2)Man(a1-6)]Man(b1-4)GlcNAc(b1-4)GlcNAc", "procedure,_shortened": "as §1"}, "[28]": {"target": "Fuc(a1-2)[GalNAc(a1-3)]Gal(b1-3)GlcNAc(b1-2)Man(a1-3)[Fuc(a1-2)[GalNAc(a1-3)]Gal(b1-3)GlcNAc(b1-2)Man(a1-6)]Man(b1-4)GlcNAc(b1-4)[Fuc(a1-6)]GlcNAc", "procedure,_shortened": "as §1"}, "[29]": {"target": "Fuc(a1-2)[GalNAc(a1-3)]Gal(b1-3)GlcNAc(b1-3)GalNAc", "procedure,_shortened": "as §1"}, "[30]": {"target": "Fuc(a1-2)[GalNAc(a1-3)]Gal(b1-3)GlcNAc(b1-6)GalNAc", "procedure,_shortened": "as §1"}, "[31]": {"target": "Fuc(a1-2)[GalNAc(a1-3)]Gal(b1-4)Glc", "procedure,_shortened": "as §1"}, "[32]": {"target": "Fuc(a1-2)[GalNAc(a1-3)]Gal(b1-4)GlcNAc", "procedure,_shortened": "as §1"}, "[33]": {"target": "Fuc(a1-2)[GalNAc(a1-3)]Gal(b1-4)GlcNAc(b1-2)Man", "procedure,_shortened": "as §1"}, "[34]": {"target": "Fuc(a1-2)[GalNAc(a1-3)]Gal(b1-4)GlcNAc(b1-2)Man(a1-3)[Fuc(a1-2)[GalNAc(a1-3)]Gal(b1-4)GlcNAc(b1-2)Man(a1-6)]Man(b1-4)GlcNAc(b1-4)GlcNAc", "procedure,_shortened": "as §1"}, "[35]": {"target": "Fuc(a1-2)[GalNAc(a1-3)]Gal(b1-4)GlcNAc(b1-2)Man(a1-3)[Fuc(a1-2)[GalNAc(a1-3)]Gal(b1-4)GlcNAc(b1-2)Man(a1-6)]Man(b1-4)GlcNAc(b1-4)[Fuc(a1-6)]GlcNAc", "procedure,_shortened": "as §1"}, "[36]": {"target": "Fuc(a1-2)[GalNAc(a1-3)]Gal(b1-4)GlcNAc(b1-3)Gal(b1-4)GlcNAc", "procedure,_shortened": "as §1"}, "[37]": {"target": "Fuc(a1-2)[GalNAc(a1-3)]Gal(b1-4)GlcNAc(b1-3)Gal(b1-4)GlcNAc(b1-3)Gal(b1-4)GlcNAc", "procedure,_shortened": "as §1"}, "[38]": {"target": "Fuc(a1-2)[GalNAc(a1-3)]Gal(b1-4)GlcNAc(b1-3)GalNAc", "procedure,_shortened": "as §1"}, "[39]": {"target": "Fuc(a1-2)[GalNAc(a1-3)]Gal(b1-4)GlcNAc(b1-3)[Fuc(a1-2)[GalNAc(a1-3)]Gal(b1-4)GlcNAc(b1-6)]GalNAc", "procedure,_shortened": "as §1"}, "[40]": {"target": "Fuc(a1-2)[GalNAc(a1-3)]Gal(b1-4)GlcNAc(b1-6)GalNAc", "procedure,_shortened": "as §1"}, "[41]": {"target": "Fuc(a1-2)[GalNAc(a1-3)]Gal(b1-4)[Fuc(a1-3)]GlcNAc", "procedure,_shortened": "as §1"}, "[42]": {"target": "Fuc(a1-2)[GalNAc(a1-3)]Gal(b1-4)[Fuc(a1-3)]GlcNAc(b1-3)GalNAc", "procedure,_shortened": "as §1"}, "[43]": {"target": "Fuc(a1-2)[GalNAc(a1-4)]Gal(b1-4)GlcNAc", "procedure,_shortened": "as §1"}}, "note": "This is one part of the list.", "data": [{"binder": "B1", "values": [{"measurement": "glycan array binding signal (z-score)", "setting": "[1]", "value": -0.102}, {"measurement": "glycan array binding signal (z-score)", "setting": "[2]", "value": 0.062}, {"measurement": "glycan array binding signal (z-score)", "setting": "Fuc(a1-2)Gal6S(b1-4)Glc", "value": 0.027}, {"measurement": "glycan array binding signal (z-score)", "setting": "[3]", "value": -0.091}, {"measurement": "glycan array binding signal (z-score)", "setting": "Fuc(a1-2)[Gal(a1-3)]Gal", "value": -0.014}, {"measurement": "glycan array binding signal (z-score)", "setting": "[4]", "value": -0.084}, {"measurement": "glycan array binding signal (z-score)", "setting": "[5]", "value": -0.103}, {"measurement": "glycan array binding signal (z-score)", "setting": "[6]", "value": -0.105}, {"measurement": "glycan array binding signal (z-score)", "setting": "[7]", "value": -0.102}, {"measurement": "glycan array binding signal (z-score)", "setting": "[8]", "value": 0.063}, {"measurement": "glycan array binding signal (z-score)", "setting": "[9]", "value": -0.076}, {"measurement": "glycan array binding signal (z-score)", "setting": "[10]", "value": -0.005}, {"measurement": "glycan array binding signal (z-score)", "setting": "[11]", "value": -0.24}, {"measurement": "glycan array binding signal (z-score)", "setting": "[12]", "value": -0.021}, {"measurement": "glycan array binding signal (z-score)", "setting": "[13]", "value": -0.162}, {"measurement": "glycan array binding signal (z-score)", "setting": "[14]", "value": 0.063}, {"measurement": "glycan array binding signal (z-score)", "setting": "[15]", "value": -0.073}, {"measurement": "glycan array binding signal (z-score)", "setting": "[16]", "value": -0.248}, {"measurement": "glycan array binding signal (z-score)", "setting": "[17]", "value": 0.285}, {"measurement": "glycan array binding signal (z-score)", "setting": "[18]", "value": -0.124}, {"measurement": "glycan array binding signal (z-score)", "setting": "[19]", "value": -0.196}, {"measurement": "glycan array binding signal (z-score)", "setting": "[20]", "value": -0.109}, {"measurement": "glycan array binding signal (z-score)", "setting": "[21]", "value": -0.087}, {"measurement": "glycan array binding signal (z-score)", "setting": "[22]", "value": -0.153}, {"measurement": "glycan array binding signal (z-score)", "setting": "[23]", "value": -0.081}, {"measurement": "glycan array binding signal (z-score)", "setting": "[24]", "value": -0.212}, {"measurement": "glycan array binding signal (z-score)", "setting": "[25]", "value": -0.201}, {"measurement": "glycan array binding signal (z-score)", "setting": "[26]", "value": -0.168}, {"measurement": "glycan array binding signal (z-score)", "setting": "[27]", "value": -0.051}, {"measurement": "glycan array binding signal (z-score)", "setting": "[28]", "value": -0.18}, {"measurement": "glycan array binding signal (z-score)", "setting": "[29]", "value": 0.068}, {"measurement": "glycan array binding signal (z-score)", "setting": "[30]", "value": -0.16}, {"measurement": "glycan array binding signal (z-score)", "setting": "[31]", "value": -0.092}, {"measurement": "glycan array binding signal (z-score)", "setting": "[32]", "value": -0.113}, {"measurement": "glycan array binding signal (z-score)", "setting": "[33]", "value": -0.046}, {"measurement": "glycan array binding signal (z-score)", "setting": "[34]", "value": -0.027}, {"measurement": "glycan array binding signal (z-score)", "setting": "[35]", "value": -0.074}, {"measurement": "glycan array binding signal (z-score)", "setting": "[36]", "value": -0.03}, {"measurement": "glycan array binding signal (z-score)", "setting": "[37]", "value": -0.147}, {"measurement": "glycan array binding signal (z-score)", "setting": "[38]", "value": -0.141}, {"measurement": "glycan array binding signal (z-score)", "setting": "[39]", "value": -0.074}, {"measurement": "glycan array binding signal (z-score)", "setting": "[40]", "value": -0.076}, {"measurement": "glycan array binding signal (z-score)", "setting": "[41]", "value": -0.093}, {"measurement": "glycan array binding signal (z-score)", "setting": "[42]", "value": -0.018}, {"measurement": "glycan array binding signal (z-score)", "setting": "[43]", "value": -0.155}]}]}
